Results taken from the supplement of paper PMC10320760.
The data scatter; read single values as rough.

B1: Ydj1; a variant is named by its letters at X, in order (parent)
chain: MVKETKFYDILGVPVTATDVEIKKAYRKCALKYHPDKNPSEEAAEKFKEASAAYEILSDPEKRDIYDQFGEDGLSGAGGAGGFPGGGFGFGDDIFSQFFGAGGAQRPRGPQRGKDIKHEISASLEELYKGRTAKLALNKQILCKECEGRGGKKGAVKKCTSCNGQGIKFVTRQMGPMIQRFQTECDVCHGTGDIIDPKDRCKSCNGKKVENERKILEVHVEPGMKDGQRIVFKGEADQAPDVIPGDVVFIVSERPHKSFKRDGDDLVYEAEIDLLTAIAGGEFALEHVSGDWLKVGIVPGEVIAPGMRKVIEGKGMPIPKYGGYGNLIIKFTIKFPENHFTSEENLKKLEEILPPRIVPAIPKKATVDECVLADFDPAKYNRTRASRGGANYDSDEEEQGGEGVQCXXX

Variants of: B1
Test: enrichment factor, frequency at 37 °C / frequency at 25 °C (thermotolerance selection) (ratio); higher = more growth at 37 °C, higher likelihood of farnesylation
Conditions: with Saccharomyces cerevisiae ydj1Δ (yWS304); selective temperature 37 °C; reference temperature 25 °C
Experimental: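 Pooled library of all 8,000 Ydj1-CXXX C-terminal motif variants (native CASQ replaced by C + three variable residues, one codon per amino acid) expressed from a CEN plasmid in S. cerevisiae ydj1Δ (yWS304). The library was grown in SC-Ura liquid to A600 ~2 (~8 generations) at permissive 25 °C or selective 37 °C. Reads from 8 and 7 replicates were pooled and variants counted by NGS. Enrichment factor = frequency at 37 °C / frequency at 25 °C, with a +1 correction; it reports Ydj1-dependent thermotolerance, used as a read-out of farnesylation by yeast FTase.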

Variant	enrichment factor
IES	0.918
KES	1.37
LES	1.28
MES	1.34
NES	0.506
CES	1.63
PES	1.3
QES	0.958
RES	1.42
SES	0.928
TES	1.22
VES	1.27
WES	1.5
YES	0.651
AES	1.38
DES	0.118
EET	0.123
FET	1.39
GET	0.147
HET	0.474
IET	0.963
KET	0.168
LET	0.594
MET	0.27

Variant	enrichment factor
NET	0.221
CET	0.931
PET	0.273
QET	0.193
RET	0.369
SET	0.182
TET	0.416
VET	1.4
WET	1.82
YET	0.995
AET	0.635
DET	0.395
EEV	0.204
FEV	1.12
GEV	0.164
HEV	0.821
IEV	0.679
KEV	0.16
LEV	0.526
MEV	0.182
NEV	0.165
CEV	1.06
PEV	0.317
QEV	0.339

Variant	enrichment factor
REV	0.291
SEV	0.198
TEV	0.702
VEV	1.26
WEV	1.65
YEV	1.13
AEV	0.907
DEV	0.112
EEW	0.0827
FEW	0.379
GEW	0.111
HEW	0.29
IEW	0.165
KEW	0.172
LEW	0.122
MEW	0.168
NEW	0.199
CEW	0.671
PEW	0.14
QEW	0.271
REW	0.141
SEW	0.277
TEW	0.315
VEW	0.169

Variant	enrichment factor
WEW	1.67
YEW	0.283
AEW	0.179
DEW	0.203
EEY	0.208
FEY	0.169
GEY	0.126
HEY	0.136
IEY	0.128
KEY	0.189
LEY	0.127
MEY	0.177
NEY	0.214
CEY	0.471
PEY	0.139
QEY	0.113
REY	0.173
SEY	0.127
TEY	0.157
VEY	0.268
WEY	1.65
YEY	0.157
AEY	0.195
DEY	0.092

Variant	enrichment factor
EFA	2.32
FFA	3.47
GFA	1.56
HFA	2.51
IFA	1.16
KFA	2.83
LFA	1.16
MFA	0.811
NFA	2.61
CFA	1.88
PFA	1.29
QFA	1.95
RFA	1.93
SFA	3.14
VFA	2.32
WFA	2.32
YFA	1.35
AFA	1.51
DFA	2.23
EFC	1.16
FFC	0.604
GFC	0.219
HFC	0.409
IFC	3.28

Variant	enrichment factor
KFC	0.109
LFC	0.116
MFC	0.356
NFC	0.579
CFC	0.695
PFC	1.38
QFC	0.157
RFC	0.347
SFC	0.618
TFC	0.154
VFC	1.96
WFC	0.786
YFC	1.71
AFC	1.31
DFC	0.965
EFD	1.23
FFD	0.88
GFD	0.491
HFD	1.74
IFD	1.5
KFD	1.78
LFD	1.91
MFD	1.71
NFD	1.32

Variant	enrichment factor
CFD	1.07
PFD	1.82
QFD	1.77
RFD	2.02
SFD	1.25
TFD	2.04
VFD	1.56
WFD	1.1
YFD	0.83
AFD	1.81
DFD	0.248
EFE	1.38
FFE	0.884
GFE	0.611
HFE	2.44
IFE	1.36
KFE	1.69
LFE	1.78
MFE	1.71
NFE	1.81
CFE	2.26
PFE	1.5
QFE	2.44
